Experimental data from PubChem BioAssay AID360 (National Center for Advancing Translational Sciences (NCATS), 2006).
Hit rate of the full screen: of about 48,000 compounds, about 550 (1.1%) were called active. Roughly 4% stayed inconclusive and do not appear here. Cut-off read from the data, not from the text of the source: active = potency below about 15 µM; inconclusive = mostly about 16 µM to 33 µM; inactive = weaker than that. Some of the results follow.

Target: Lysosomal acid glucosylceramidase (Homo sapiens) (UniProt P04062)
Chain of UniProt P04062 (P04062 whole entry, looked up): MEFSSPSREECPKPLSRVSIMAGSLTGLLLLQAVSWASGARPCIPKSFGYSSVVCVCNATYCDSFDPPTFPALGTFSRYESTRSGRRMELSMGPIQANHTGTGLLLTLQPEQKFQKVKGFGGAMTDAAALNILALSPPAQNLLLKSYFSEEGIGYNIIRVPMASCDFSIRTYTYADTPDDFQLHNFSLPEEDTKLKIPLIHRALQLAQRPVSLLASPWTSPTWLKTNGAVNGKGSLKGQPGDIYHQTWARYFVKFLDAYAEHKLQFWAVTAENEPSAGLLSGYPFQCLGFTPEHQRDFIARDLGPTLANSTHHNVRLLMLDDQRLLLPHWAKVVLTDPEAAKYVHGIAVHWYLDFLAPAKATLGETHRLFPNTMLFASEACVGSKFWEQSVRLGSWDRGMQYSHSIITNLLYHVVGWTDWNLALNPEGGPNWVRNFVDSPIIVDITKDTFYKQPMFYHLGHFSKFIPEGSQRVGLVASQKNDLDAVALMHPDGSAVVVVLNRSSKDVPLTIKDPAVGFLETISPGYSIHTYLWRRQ
Assay: Glucocerebrosidase;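 note: the screen sought inhibitors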
Conditions: purified enzyme, resorufin glucoside fluorescence (screen aimed at inhibitors), 20 min
Method in brief: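 Compounds titrated against 0.2 nM normal enzyme, 30 uM resorufin beta-D-glucopyranoside substrate, citrate/phosphate buffer with taurocholate and tween-20, pH 5.9. Reaction ran 20 min at room temperature; fluorescence (Ex 548/Em 600) gave AC50.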
Potency is the fitted concentration of half-maximal effect.

Potency, inactive:
Cc1noc(C)c1C(=O)Nc1cccnc1 > 76.9 µM
Nc1cc(N)nc(SCc2cccnc2)n1 > 76.9 µM
CC(=O)NCCOc1ccc2oc3ccccc3c2c1 > 76.9 µM
CS(=O)(=O)Nc1cccc(C(=O)CC2(O)C(=O)Nc3ccccc32)c1 (stereo unspecified) > 76.9 µM
Cc1cc(NC(=O)CSc2ccc3nnc(-c4ccc(F)cc4)n3n2)no1 > 76.9 µM
O=C(CCCOc1ccc(Cl)cc1)N1CCCCCC1 > 76.9 µM
C=CCN1C(=O)CN=C1Nc1cc(C)ccc1C > 76.9 µM
CSc1ccccc1NC(=O)CN(c1cccc(C)c1)S(C)(=O)=O > 76.9 µM
CCC(C)NS(=O)(=O)c1cccs1 (stereo unspecified) > 76.9 µM
Cc1c(C(=O)O)nnn1-c1ccccc1 > 76.9 µM
COc1ccc(C)cc1N(CC(=O)Nc1cccc(N(C)S(C)(=O)=O)c1)S(C)(=O)=O > 76.9 µM
CCS(=O)(=O)N1CCCC(c2nc(-c3cccc(OC)c3)no2)C1 (stereo unspecified) > 76.9 µM
Cc1nc2ccc(NC(=O)N3CCOCC3)cc2s1 > 76.9 µM
O=C(Nc1ccc2c(c1)OCO2)Nc1cnccn1 > 76.9 µM
CCC(C)NC(=O)C1(C)CCC(=O)N1CCc1ccc(OC)c(OC)c1 (stereo unspecified) > 76.9 µM
COc1ccccc1NC(=O)C1=C(C)Nc2ncnn2C1c1ccc(C)o1 (stereo unspecified) > 76.9 µM
COc1ccc2cc(CN(CC3COCCO3)S(=O)(=O)c3ccc(Cl)cc3)c(=O)[nH]c2c1 (stereo unspecified) > 76.9 µM
CCOC(=O)c1[nH]c(C)c(/C(O)=C2\C(=O)C(=O)N(CCCN(CC)CC)C2c2cccnc2)c1C (stereo unspecified) > 76.9 µM
O=C(CSc1nc2ccccc2[nH]1)c1ccco1 > 76.9 µM
Cc1nnc(SCC(=O)N2CCC(Cc3ccccc3)CC2)n(N)c1=O > 76.9 µM
O=C(O)CCc1nc2ccccc2n(CCc2ccccc2)c1=O > 76.9 µM
CCCCCOc1ccc(C(=O)N(Cc2ccco2)C2CCS(=O)(=O)C2)cc1 (stereo unspecified) > 76.9 µM
COc1ccccc1C(c1nnnn1CCc1ccccc1)N1CCN(c2ccccc2)CC1 (stereo unspecified) > 76.9 µM
Cn1c(SCC(=O)N2CCOCC2)nnc1-c1cnccn1 > 76.9 µM
c1ccc2c(c1)oc1c(NCc3ccc4c(c3)OCO4)ncnc12 > 76.9 µM
CC(NC(=O)COc1ccccc1)C(c1ccccc1)N1CCN(C)CC1 (stereo unspecified) > 76.9 µM
